# Assay results as given in publication PMC4336329 (PLoS ONE, 2015).
# In all, about 310,000 compounds went through this assay and about 14,000 (4.5%) showed an effect of 50% or more. Effects have a minus sign here. Some of the results follow.
# Molecular target: human ether-à-go-go-related gene (hERG) potassium channel (human, UniProt Q12809)
# Test: primary screen, population patch clamp on CHO cells stably expressing hERG
# 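Note: peak tail current of the secondary pulse compared with the same well before compound.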
# Chain of human ether-à-go-go-related gene (hERG) potassium channel (Q12809 whole entry, looked up): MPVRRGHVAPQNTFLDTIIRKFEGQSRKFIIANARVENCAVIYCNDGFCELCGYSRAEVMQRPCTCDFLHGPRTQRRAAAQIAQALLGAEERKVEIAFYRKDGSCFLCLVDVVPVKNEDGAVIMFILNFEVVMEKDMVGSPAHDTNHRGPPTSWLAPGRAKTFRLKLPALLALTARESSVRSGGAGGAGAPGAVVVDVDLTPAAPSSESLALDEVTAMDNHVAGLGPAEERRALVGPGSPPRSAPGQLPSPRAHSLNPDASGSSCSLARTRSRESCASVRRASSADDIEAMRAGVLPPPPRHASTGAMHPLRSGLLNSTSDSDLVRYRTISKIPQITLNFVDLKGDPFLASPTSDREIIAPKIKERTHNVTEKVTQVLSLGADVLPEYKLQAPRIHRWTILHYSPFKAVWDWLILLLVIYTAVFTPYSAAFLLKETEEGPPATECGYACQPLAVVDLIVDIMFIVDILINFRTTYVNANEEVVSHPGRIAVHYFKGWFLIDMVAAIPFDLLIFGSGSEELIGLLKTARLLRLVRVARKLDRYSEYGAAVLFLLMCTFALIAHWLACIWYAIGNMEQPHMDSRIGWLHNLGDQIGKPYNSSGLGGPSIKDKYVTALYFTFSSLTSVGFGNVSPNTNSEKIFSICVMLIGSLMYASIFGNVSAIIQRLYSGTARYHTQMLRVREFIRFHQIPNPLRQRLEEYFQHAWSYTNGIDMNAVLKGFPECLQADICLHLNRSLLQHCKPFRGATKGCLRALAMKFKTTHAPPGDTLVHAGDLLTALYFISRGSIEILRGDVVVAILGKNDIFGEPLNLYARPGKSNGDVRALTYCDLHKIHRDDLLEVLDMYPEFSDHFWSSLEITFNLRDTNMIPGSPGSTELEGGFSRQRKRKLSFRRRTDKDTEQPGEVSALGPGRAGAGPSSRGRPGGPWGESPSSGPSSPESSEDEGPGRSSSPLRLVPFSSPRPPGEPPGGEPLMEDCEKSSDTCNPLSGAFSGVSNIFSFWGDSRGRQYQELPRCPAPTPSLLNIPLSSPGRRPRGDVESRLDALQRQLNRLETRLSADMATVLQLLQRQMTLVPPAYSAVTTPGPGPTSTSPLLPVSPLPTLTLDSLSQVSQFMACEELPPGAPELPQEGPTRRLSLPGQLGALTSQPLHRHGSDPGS
row,SMILES,"hERG current change (%, negative = inhibition) at 10uM"
1,C=C(C)[C@@H]1CC[C@]2(C(=O)O)CC[C@]3(C)[C@H](CC[C@@H]4[C@@]5(C)CC[C@H](O)C(C)(C)[C@@H]5CC[C@]43C)[C@@H]12,-8.59%
2,Nc1ccccc1C#Cc1cnccn1,9.89%
3,CC1CN(CCCCOc2ccc(F)cc2)CC(C)O1.O=C(O)C(=O)O (stereo not drawn),-42.7%
4,NC(=O)COC(=O)c1ccccc1Oc1ccccc1,6.04%
5,S=C(NCCc1ccccc1)Nc1ccccn1,17.8%
6,COc1ccc(S(=O)(=O)NCC2CCC(C(=O)NCc3ccco3)CC2)cc1 (stereo not drawn),20.2%
7,N#Cc1ccncc1Sc1ccc(Cl)cc1,-6.67%
8,CN(C)C(=O)c1cc2cc(Br)ccc2s1,-3.77%
9,C/C(=N\NC(=O)c1nnn(-c2nonc2N)c1CN1CCc2ccccc21)c1ccccc1O,12.8%
10,CCCCCN(C(=O)NC(=O)Nc1ccccc1C)S(C)(=O)=O,-1.9%
11,CCN(CC)S(=O)(=O)c1ccc(Cl)c(NC(=O)COC(=O)c2cc(-c3ccccc3Cl)nc3ccccc23)c1,16.7%
12,O=C(O)Cn1c(SCCOc2ccccc2)nc2ccccc21,0.876%
13,CC(C)OCCCNC(=O)c1sc(=S)n(C)c1N,2.64%
14,O=C(CCc1nc(-c2ccccc2F)no1)NC1CCCCC1,3.99%
15,O=C(N/N=C/c1cn(-c2ccccc2)nc1-c1ccc(F)cc1)c1ccc(Br)o1,27.7%
16,CCN1C(=O)[C@H]2[C@@H](c3ccc(Cl)cc3)N3C(=O)CN(CC4CC4)C(=O)[C@@]3(Cc3ccccc3)[C@H]2C1=O,-18.2%
17,CCOc1ccc2nc(SC3CC(=O)N(c4ccc(C)cc4)C3=O)sc2c1 (stereo not drawn),-6.29%
18,C/C(=N\Nc1nc(N2CCOCC2)nc(N2CCOCC2)n1)c1cccc([N+](=O)[O-])c1,-4.76%
19,COc1ccc2nc(NC(=O)CCc3cc(OC)c(OC)c(OC)c3)sc2c1,-9.26%
20,CC(=O)Nc1ccc(/C=C2\CCc3ccccc3C2=O)cc1,11.7%
21,COc1ccccc1CC(=O)N1CCN(c2ccccc2F)CC1,-7.74%
22,COc1ccc(-c2cc(C(=O)NCCCN3CCOCC3)c3ccccc3n2)cc1OC,-7.5%

row,SMILES,"hERG current change (%, negative = inhibition) at 10uM"
1,CC1(C)NC(=O)N(CC(=O)N2CCN(c3cccc(C(F)(F)F)c3)CC2)C1=O,6.26%
2,C=C1CCC[C@]2(C)C[C@H]3OC(=O)C(CNCCN(CC)CC)[C@H]3CC12.O=C(O)C(=O)O (stereo partly drawn),0.486%
3,O=C(c1ccccc1)N1CCCN(c2nccc(C(F)(F)F)n2)CC1,-5.32%
4,O=C(CCC(=O)c1ccc(F)cc1)NCC1(N2CCCCC2)CCCCC1,-35%
5,Cc1ccc2cccc(OCC(=O)NCc3ccco3)c2n1,-17.9%
6,COc1ccc(S(=O)(=O)Nc2cccnc2)cc1OC,4.69%
7,CCOc1ccc(OCCCC(=O)ON=C(N)c2ccccc2Cl)cc1,5.82%
8,FC(F)(F)c1cccc(N2CCN(C3CC4CCC3C4)CC2)c1 (stereo not drawn),-1.68%
9,CC(Cc1cccs1)NC(=O)Nc1ccc(Cl)cc1 (stereo not drawn),1.12%
10,Cc1noc(C)c1COc1ccc(C(=O)OCC(=O)NCCN2C(=O)CSC2=O)cc1,-8.06%
11,S=c1[nH]nc(-c2ccncc2)n1/N=C/c1cccc2ccccc12,10.1%
12,CCN(CC)CCNC(=O)c1cn(CC)c2ccc(S(=O)(=O)N(C)C3CCCCC3)cc2c1=O,-67.2%
13,CCC(CO)Oc1cc(NC(=O)c2ccccc2)c2ncn(C(C)C)c2c1 (stereo not drawn),-2.51%
14,Cc1cc(NS(=O)(=O)c2ccc(NC(=O)CCCOc3ccccc3C)cc2)no1,10.1%
15,c1ccc(CNc2ncnc3sccc23)cc1,9.9%
16,CCc1cc(=S)n2c([nH]c3ccccc32)c1C#N,24.6%
17,O=C(c1ccccc1)N1CCN(C(=O)c2ccccc2Br)CC1,6.61%
18,Cc1ccc(/C=C2\SC(=S)N(Cc3ccccc3)C2=O)o1,-11.3%
19,CCNc1c(C(=O)O)ccc2c1C(=O)c1ccccc1C2=O,6.49%
20,CC1CCCC(NC(=O)c2cccc(S(=O)(=O)N3CCCCC3)c2)C1C (stereo not drawn),1.84%
21,Cc1ccc(NC(=O)Nc2ccc([N+](=O)[O-])cc2)nc1,9.85%
22,COc1ccc(CCNC(=O)Cn2c(=O)cnc3ccccc32)cc1,-5.47%

row,SMILES,"hERG current change (%, negative = inhibition) at 10uM"
1,Cc1ccc(C)c(OCCCC(=O)N2CCOCC2)c1,-2.18%
2,O=C(Nc1sc2c(c1C(=O)NCC(O)CO)CCCC2)c1ccccc1 (stereo not drawn),6.02%
3,CCCC[n+]1ccn(-c2nc3ccccc3nc2[N-]S(=O)(=O)c2ccc(C)cc2)c1,-15.2%
4,CC(C)Cc1nnc(NC(=O)c2cc3c(s2)CCC3)s1,16.9%
5,O=C(C1CCN(c2nnnn2-c2ccccc2)CC1)N1CCN(c2ccccc2)CC1,-33.9%
6,CCCc1cc(=O)[nH]c(N2CCN(Cc3ccc4c(c3)OCO4)CC2)n1,-9.57%
7,c1nc(N2CCOCC2)c2c3c(sc2n1)CCCC3,-7.14%
8,CC(=O)N1CCN(C(=O)C2(NC(=O)Nc3ccccc3Cl)CCCCC2)CC1,12.5%
9,O=C(NCc1n[nH]c(=S)n1-c1ccc(Cl)c(Cl)c1)c1ccco1,16.7%
10,Cc1ccc(CNC(=O)COC(=O)C2CCN(S(=O)(=O)c3cccs3)CC2)cc1,-50.5%
11,O=c1n(-c2ccc(Br)cc2)cnn1-c1ncccc1[N+](=O)[O-],-22.1%
12,O=C(O)c1ccc(COc2c(F)c(F)c(F)c(F)c2F)o1,-1.09%
13,O=C(CBr)c1ccc([N+](=O)[O-])c(CS(=O)(=O)c2ccc(Cl)cc2)c1,-2.19%
14,CC1CCCC(C)N1C(=O)CSc1nnnn1-c1cccc2c1CCCC2 (stereo not drawn),-15.3%
15,CCC1CN(C(=O)NCc2ccc(F)cc2)c2ccccc2O1 (stereo not drawn),-15.6%
16,CC1CCc2sc(C(=O)OC(C)C(=O)Nc3ncc(Cl)cc3Cl)cc2C1 (stereo not drawn),4.96%
17,N#Cc1cccc(S(=O)(=O)NCC(=O)OCC(=O)NCc2ccccc2)c1,2.73%
18,O=C(NC1CCCC1)C(c1ccc(Cl)cc1)N1CCN(C2CCCCC2)CC1 (stereo not drawn),-59.3%
19,CC/C(=N\NS(=O)(=O)c1ccc(C)cc1)c1ccco1,9.65%
20,O=c1[nH]c(CN2CCN(c3ccccc3O)CC2)nc2scc(-c3ccccc3Cl)c12,-5.68%
21,Cc1ccc(SCC(=O)OCC(=O)NC(C)c2ccc(F)cc2)cc1 (stereo not drawn),6.96%
22,CN(C)/C=N/S(=O)(=O)c1cccn1-c1ncc(C(F)(F)F)cc1Cl,-5.99%

row,SMILES,"hERG current change (%, negative = inhibition) at 10uM"
1,CN1C(=O)NC(NS(=O)(=O)c2ccc(N)cc2)(C(F)(F)F)C1=O (stereo not drawn),31.7%
2,Cc1ccc(-n2nc3c(=O)n(CC(=O)NCc4ccccc4)nc(C)c3c2C)cc1,7.43%
3,OC(c1nc2ccccc2[nH]1)C(O)c1nc2ccccc2[nH]1 (stereo not drawn),15.1%
4,CCCSC1=NN2CCCC(=O)N=C2S1,18%
5,O=C(NCCc1cn2ccsc2n1)C1CCCCC1,-0.622%
6,COc1ccc(C2/C(=C(/O)c3ccccc3)C(=O)C(=O)N2c2ccccn2)cc1OC (stereo not drawn),18.2%
7,O=C(c1cn(Cc2ccccc2F)c2ncccc12)C(F)(F)F,16.6%
8,Cc1ccc(C)c(S(=O)(=O)Nc2ccc3oc(C)c(C(=O)O)c3c2)c1,9.25%
9,CC(=O)N1CCC2(CC1)CC(=O)c1cc(OCC(=O)N3CCC4(CC3)OCCO4)ccc1O2,18.5%
10,Cc1ccc(NC(=O)CN(C)C(=O)c2cccnc2Nc2cccc(C(F)(F)F)c2)cc1,6.71%
11,CN1CCN(C(=O)C2CCN(S(=O)(=O)c3ccccc3[N+](=O)[O-])CC2)CC1,5.28%
12,Cc1ccccc1Oc1nc2ccccn2c(=O)c1/C=C(\C#N)C(=O)Nc1c(C)n(C)n(-c2ccccc2)c1=O,18.7%
13,COc1ccc(/C=N/NC(=O)Nc2cccc3nsnc23)cc1,4.86%
14,O=C(O)CCn1c(=O)[nH]c(=O)n(CCC(=O)O)c1=O,21.5%
15,CCCCCCc1cc2cc(C(=O)Nc3ccccc3)c(=O)oc2cc1O,0.167%
16,O=C(O)C1Nc2c(Cl)cc(Cl)cc2C2C=CCC12 (stereo not drawn),19%
17,COc1cccc(N2CCN(C(=O)c3ccc(CS(=O)Cc4ccc(Cl)cc4)o3)CC2)c1 (stereo not drawn),-41.8%
18,COc1ccc(CN2CCN(Cc3ccccc3F)CC2)c(OC)c1.O=C(O)C(=O)O,-68.5%
19,COc1ccc(C(=O)Nc2nnc(Cc3ccc(OC)c(OC)c3)s2)cc1,13.2%
20,COc1ccc(/C=N/N=C2/NC(=O)C(c3ccccc3)S2)c(OC)c1 (stereo not drawn),26.5%
21,COc1cccc(CNC(=O)CC2C(=O)NCCN2Cc2ccoc2)c1OC (stereo not drawn),17.4%
